Source: PubChem BioAssay AID662 (National Center for Advancing Translational Sciences (NCATS), 2007)
Hit rate of the full screen: of about 71,000 compounds, about 1,800 (2.5%) were called active. This list was built around the results that the source calls inconclusive (neither active nor inactive); the mix of calls is not that of the screen. Calls follow the shape of the dose curve; as a rule, active = well fitted activation curve with a large enough effect in the signal ratio, with a control signal flat (not every such curve was filed as active); inconclusive = small, poorly fitted or top-dose-only effect, or effect the other way, or a change in a side signal; inactive = flat fitted curve, though single readings scatter; the % refers to the signal ratio. A potency beside an inconclusive call is a rough fit, not a confirmed value.

experiment: Cell signaling CRE-BLA (Fsk stim); conditions: CHO CRE-bla reporter (cAMP response element driving beta-lactamase), forskolin EC10, beta-lactamase ratio; activity change, negative = inhibition: at 38.2 µM (top of the series) unless noted; as to activity change, negative = inhibition: % of control where 0% means no effect
Summary of the method: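 Using CellSensor CRE-bla CHO cells in Opti-MEM with 0.5% dialyzed FBS, compounds were titrated with EC10 NKH 477 for 3 h at 37 °C. CCF4 ratio (460/530 nm) gave %Activity; AC50 derived.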
Potency is read from the fitted curve at half-maximal effect; tags tell the direction and shape of the fitted curve.

Row | Structure (SMILES) | activity change, negative = inhibition | Potency
1 | COC(=O)CCCC[C@H]1SC[C@H]2NC(=O)N[C@]21O | inactive: -0.0828% | –
2 | CCCCCn1c(N2CCN(c3cccc(Cl)c3)CC2)nc2c1c(=O)[nH]c(=O)n2C | inconclusive: 7.28% | –
3 | COC(=O)[C@H](C)NC(=O)Nc1cc(OC)ccc1OC | – | inconclusive: 0.00398 µM [rising, full curve]
4 | Cc1c(N=C2Nc3cccc4cccc2c34)c(=O)n(-c2ccccc2)n1C | – | inconclusive: 25.1 µM [falling, single point]
5 | CN1CCCN(C(=O)Cc2c(Cl)cccc2Cl)c2nc3ccccc3nc21 | – | inconclusive: 12.6 µM [rising, single point]
6 | Cc1cc(NC(=O)CSc2nnc3c(C)cc4cc5c(cc4n23)OCO5)no1 | inconclusive: 7.6% | –
7 | O=C(c1cnn2cccnc12)N1CCN(Cc2ccc3c(c2)OCO3)CC1 | inconclusive: -6.31% | –
8 | COC(=O)c1cc2c(ccn2-c2ccc(F)cc2)n1CC(=O)N1CCN(C(=O)c2ccco2)CC1 | – | inconclusive: 2 µM [rising, partial curve]
9 | CCCc1cc(=O)n2[nH]c(CCc3ccccc3)nc2n1 | inactive: -5.26% | –
10 | CCCC(=O)N1CCN(c2ccc(NC(=O)c3cc4ccccc4o3)cc2Cl)CC1 | – | inconclusive: 25.1 µM [falling, single point]
11 | Nc1c(NCCC2=CCCCC2)c(=O)[nH]c(=O)n1Cc1ccccc1 | inconclusive: 18.2% | –
12 | Cc1ccc(Cn2ccc(NC(=O)c3c(-c4ccccc4Cl)noc3C)n2)cc1 | – | inconclusive: 10 µM [falling, partial curve]
13 | N#Cc1c(NC(=O)CSC2=NCCS2)sc2c1CCCC2 | inactive: 11.8% | –
14 | COc1ccc(S(=O)(=O)N(CC(N)=O)C2CCCCC2)cc1Cl | inactive: -4.62% | –
15 | CC(C)Oc1ccc2c3c(c(=O)oc2c1)CCC3 | – | inconclusive: 10 µM [rising, partial curve]
16 | Cc1cc(OCCSc2nnc(-c3cccs3)n2C)ccc1Cl | inconclusive: 4% | –
17 | O=C1N2CCSC2=NC1(Nc1ccccn1)C(F)(F)F (stereo not given) | inconclusive: 7.57% | –
18 | NC(=O)C1(N2CCCCC2)CCN(c2ccc3nnc(-c4ccccc4)n3n2)CC1 | – | inconclusive: 12.6 µM [rising, partial curve]
19 | COc1ccc(NC(=O)N2CCC3(CC2)CCN(C(=O)c2cccc(F)c2)CC3)cc1 | inactive: -17.1% | –
20 | Cc1ccc2c(c1)c1c(n2CC(O)CNC(CO)(CO)CO)CCCC1 (stereo not given) | inactive: -13.8% | –
21 | COc1cccc(NC(=O)Nc2nnc(N3CCCCC3C)s2)c1 (stereo not given) | – | inconclusive: 3.16 µM [rising, single point]
22 | N#CC(C#N)=c1ccc2c(c1)N1C3=C(CCCC3)CC3CCCCC31N=2 (stereo not given) | inactive: 11% | –

Row | Structure (SMILES) | activity change, negative = inhibition | Potency
23 | CC1(C)Cc2c(C#N)c(OCC(=O)c3ccc(Cl)cc3)nc(-c3ccco3)c2CO1 | inactive: 14.9% | –
24 | CC1=C(C(=O)N2CCOCC2)C(c2cccs2)NC(=O)N1 (stereo not given) | inactive: 0.745% | –
25 | COc1ccc(C)cc1NC(=O)NC1CCN(Cc2ccccc2)CC1 | inactive: -9.67% | –
26 | O=C(CN1C(=O)c2cccc3cccc1c23)Nc1ccc(S(=O)(=O)N2CCOCC2)cc1 | inconclusive: -2.91% [fluorescent] | –
27 | COc1cc2c(cc1NC(=O)c1ccco1)CCCC2 | inconclusive: -1.15% [at 7.6 µM] | –
28 | COC(=O)C1=C(C)NC2=C(C(=O)CC(c3cccs3)C2)C1c1ccsc1 (stereo not given) | inconclusive: 29.4% | –
29 | O=C(O)c1cc2nc(-c3ccccc3)cc(C(F)(F)F)n2n1 | inactive: -3.33% | –
30 | O=C(NCCOc1ccccc1)c1n[nH]c(=O)c2ccccc12 | – | inconclusive: 10 µM [rising, single point]
31 | C=Cc1c(C)c2cc3nc(cc4[nH]c(cc5nc(cc1[nH]2)C(C)=C5CCC(=O)O)c(CCC(=O)OC)c4C)[C@@]1(C)C3=CC=C(C(=O)OC)[C@H]1C(=O)OC (tested in a mixture with another compound) | – | inconclusive: 12.6 µM [rising, single point]
32 | COc1cccc(Cn2c(=O)c(-c3ccc(F)c(F)c3)nc3cncnc32)c1 | inconclusive: 29.5% | –
33 | CCOC(=O)c1oc2ccccc2c1NC(=O)c1ccc(S(=O)(=O)N2CCCC2)cc1 | inconclusive: 24.2% | –
34 | NC(=O)c1oc2ccccc2c1NC(=O)CN1CCCCC1 | inconclusive: 18.6% | –
35 | COc1cccc(C2CC(C(F)(F)F)n3ncc(C(=O)NCC4CCCO4)c3N2)c1 (stereo not given) | inactive: -3.91% | –
36 | CN(C)Cc1ccccc1-c1cc(N(C)C)ncn1 | inactive: 3.28% | –
37 | c1cc(N2CCCC2)ccc1C(c1nnnn1C1CCCCC1)N1CCOCC1 (stereo not given) | inactive: 0.942% | –
38 | C=CCN=C(NC#N)SCC(=O)NC(C)(C)C | – | inconclusive: 15.8 µM [falling, partial curve]
39 | CCc1ccc(C2CC(=O)N3CN(c4ccccc4)CSC3=C2C#N)cc1 (stereo not given) | inactive: -4.83% | –
40 | CCCC[C@@H]1C[C@H]1C(NC(=O)c1cccs1)c1ccc(-c2ccccc2)cc1 (stereo not given in full) | inactive: 13.7% | –
41 | COc1ccc(CCNc2oc(COc3ccccc3F)nc2C#N)cc1 | inconclusive: -11.6% | –
42 | Cc1cc(C(=O)Nc2sc3c(c2C#N)CCC(C)C3)no1 (stereo not given) | – | inconclusive: 20 µM [rising, single point]
43 | O=C(c1ccc(Cl)s1)N1CCN(c2ccccc2)CC1 | – | active: 12.6 µM
44 | COCCCn1c(-c2ccccc2)nc2ccccc2c1=O | inactive: 22.5% | –

Row | Structure (SMILES) | activity change, negative = inhibition | Potency
45 | N#Cc1nc(COc2ccc(Cl)cc2)oc1NCc1ccc2c(c1)OCO2 | inactive: 11.7% | –
46 | Oc1c(C(c2ccco2)N2CCN(C(c3ccccc3)c3ccccc3)CC2)sc2ncnn12 (stereo not given) | – | active: 10 µM
47 | O=C(Nc1cccc(Cl)c1)N(Cc1nc2ccccc2c(=O)[nH]1)C1CCCC1 | inconclusive: 17.7% | –
48 | COc1ccccc1NC(=O)c1cc2ccccc2o/c1=N\O | inactive: 0.69% | –
49 | O=C(C1CCCN1S(=O)(=O)c1ccc(Cl)cc1)N1CCOCC1 (stereo not given) | inconclusive: 3.32% | –
50 | CC(C)(O)CCC(C)(C)O | inactive: -9.27% | –
51 | COC(=O)/C=C/S(=O)(=O)c1ccc(NC(C)=O)cc1 | – | inconclusive: 2 µM [falling, full curve, poor fit]
52 | COc1ccc(-c2nn3c(-c4ccccc4)nnc3s2)cc1 | – | inconclusive: 10 µM [rising, partial curve]
53 | Cc1cc(SCC(=O)NC(=O)NCc2ccco2)nc2c(C)cccc12 | inconclusive: -13.2% | –
54 | CC(=O)c1cccc(NC(=O)c2cc(-n3cnnc3)ccc2Cl)c1 | inactive: -12.4% | –
55 | O=C(O)C[C@@H](C(=O)O)C1c2ccccc2-c2ccccc21 | inactive: 4.99% [at 7.6 µM] | –
56 | Cc1c(Cl)cccc1NC(=O)NC1CCCCC1 | inconclusive: 5.01% | –
57 | CS(=O)(=O)N1CCC(C(=O)Nc2ccccc2F)CC1 | inconclusive: -13.8% | –
58 | O=C1CCCC2=C1C(Cc1ccccc1)C1=C(CCCC1=O)O2 | inconclusive: -21.1% | –
59 | O=C(Nn1cnnc1)c1ccccc1CCc1ccccc1 | inactive: -7.07% | –
60 | CN(C)c1ccc(P(=O)(OCc2ccccc2)C(O)c2cccnc2)cc1 (stereo not given) | – | inconclusive: 25.1 µM [falling, single point]
61 | COc1cccc(-n2c(SCC(=O)Nc3cc(C)on3)nc3ccccc3c2=O)c1 | inconclusive: 28.7% | –
62 | CC(C)[C@H](NC(=O)Nc1cccc(C(F)(F)F)c1)C(=O)O | inconclusive: 1.06% | –
63 | O=C(CSc1nc(-c2ccccc2)cc(=O)[nH]1)N1CCc2ccccc21 | inactive: 8.23% | –
64 | Cc1ccccc1OCC(=O)NCCC(=O)O | inconclusive: 0.692% [at 7.6 µM] | –
65 | COc1ccc(CC(=O)N2CC3(C)CC2CC(C)(C)C3)cc1OC (stereo not given) | – | inconclusive: 5.01 µM [rising, single point]
66 | CN(C)CCCCl | inactive: 0.939% | –

Row | Structure (SMILES) | activity change, negative = inhibition | Potency
67 | Cn1c(C(=O)NCCN2CCN(c3ccccc3F)CC2)cc2c(=O)n(C)c3ccccc3c21 | inconclusive: 24.3% | –
68 | CCCCCCNc1c(C(=O)OCC)c(=O)[nH]c2ccccc12 | – | active: 3.98 µM
69 | Cc1cccc(CNc2cc(-c3c(C)noc3C)ncn2)c1 | inconclusive: 24% | –
70 | O=C(CSc1ncnc2c1oc1ccccc12)N1CCCc2ccccc21 | inconclusive: -7.77% | –
71 | Cn1cc(-c2nc3cnc(N4CCOCC4)nc3n(C3CC3)c2=O)c2ccccc21 | inconclusive: 24.7% | –
72 | CS(=O)(=O)N(CC(=O)N1CCN(c2ccccc2F)CC1)c1cc(C(F)(F)F)ccc1Cl | – | inconclusive: 1 µM [falling, full curve]
73 | COc1ccc(-c2nn(C)c(=O)c3ccccc23)cc1CNC(=O)CN1CCOCC1 | – | inconclusive: 25.1 µM [rising, single point]
74 | CC1CCCC(NC2CCCCNC2=O)C1 (stereo not given) | inconclusive: 3.31% [at 7.6 µM] | –
75 | COc1ncc2nc(-c3ccc(F)cc3)c(=O)n(C[C@H]3CCCO3)c2n1 | – | inconclusive: 10 µM [rising, partial curve]
76 | CC1CCCN(c2nc3c(c(=O)[nH]c(=O)n3C)n2Cc2ccccc2Cl)C1 (stereo not given) | inactive: 19% | –
77 | O=C(Nc1cccnc1)c1ccc(Cl)c(S(=O)(=O)N2CCCCCC2)c1 | inactive: 7.07% | –
78 | O=C(Cn1cnnn1)OCC(=O)c1ccc(Cl)s1 | inconclusive: -13.7% | –
79 | Nc1nc2n(n1)C(c1ccco1)CC(c1ccc(Cl)c(Cl)c1)N2 (stereo not given) | – | inconclusive: 15.8 µM [falling, partial curve, poor fit]
80 | CCOc1cc(C2C3=C(CCCC3=O)NC3=C2C(=O)CCC3)ccc1OCCO | inactive: -6.49% | –
81 | CCCc1nnc2n1N=C(c1ccc(OC)c(OC)c1)CS2 | – | active: 6.31 µM
82 | CC(C)CCn1c(Sc2nc3ccccc3s2)nc2c1c(=O)[nH]c(=O)n2C | – | active: 10 µM
83 | N#Cc1nc(Cc2ccccc2)oc1NCCCn1ccnc1 | inactive: 22.8% | –
84 | Cc1ccc(S(=O)(=O)NC(CC(=O)O)c2ccccc2)cc1 (stereo not given) | – | active: 1.26 µM
85 | Cc1ccc(S(=O)(=O)NCCOC(=O)Nc2sc(=S)n(C)c2C)cc1 | inconclusive: -24.1% [at 7.6 µM] | –
